# This is one part of the list.
# Tests used:
# Assay in all cases: glycan array binding signal (z-score within array); higher = stronger binding
# Conditions in all cases: glycan notation: IUPAC condensed, linker removed
# [1] = target: GlcNAc(b1-2)Gal(b1-3)GalNAc
# In short: (§1)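 Negative Z-scores can be read as non-binding. The Z-score is calculated within each array and then averaged across arrays of one protein sequence at different concentrations or buffers and across linkers. Arrays, 3228 in all, were curated from the Consortium for Functional Glycomics database and kept only where the protein sequence was available.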
# [2] = target: GlcNAc(b1-2)Man(a1-3)[GlcNAc(b1-2)Man(a1-6)]Man(b1-4)GlcNAc(b1-4)GlcNAc
# In short: as §1
# [3] = target: GlcNAc(b1-2)Man(a1-3)[GlcNAc(b1-2)Man(a1-6)]Man(b1-4)GlcNAc(b1-4)[Fuc(a1-6)]GlcNAc
# In short: as §1
# [4] = target: GlcNAc(b1-2)Man(a1-3)[GlcNAc(b1-4)][GlcNAc(b1-2)Man(a1-6)]Man(b1-4)GlcNAc(b1-4)GlcNAc
# In short: as §1
# [5] = target: GlcNAc(b1-2)Man(a1-3)[GlcNAc(b1-4)][GlcNAc(b1-2)Man(a1-6)]Man(b1-4)GlcNAc(b1-4)[Fuc(a1-6)]GlcNAc
# In short: as §1
# [6] = target: GlcNAc(b1-2)[GlcNAc(b1-4)]Man(a1-3)[GlcNAc(b1-2)Man(a1-6)]Man(b1-4)GlcNAc(b1-4)GlcNAc
# In short: as §1
# [7] = target: GlcNAc(b1-2)[GlcNAc(b1-4)]Man(a1-3)[GlcNAc(b1-4)][GlcNAc(b1-2)Man(a1-6)]Man(b1-4)GlcNAc(b1-4)GlcNAc
# In short: as §1
# [8] = target: GlcNAc(b1-2)[GlcNAc(b1-4)]Man(a1-3)[GlcNAc(b1-4)][GlcNAc(b1-2)[GlcNAc(b1-6)]Man(a1-6)]Man(b1-4)GlcNAc(b1-4)GlcNAc
# In short: as §1
# [9] = target: GlcNAc(b1-2)[GlcNAc(b1-4)]Man(a1-3)[GlcNAc(b1-4)][GlcNAc(b1-2)[GlcNAc(b1-6)]Man(a1-6)]Man(b1-4)GlcNAc(b1-4)[Fuc(a1-6)]GlcNAc
# In short: as §1
# [10] = target: GlcNAc(b1-2)[GlcNAc(b1-6)]Man(a1-6)[GlcNAc(b1-2)Man(a1-3)]Man(b1-4)GlcNAc(b1-4)GlcNAc
# In short: as §1
# [11] = target: GlcNAc(b1-2)[GlcNAc(b1-6)]Man(a1-6)[GlcNAc(b1-2)Man(a1-3)]Man(b1-4)GlcNAc(b1-4)[Fuc(a1-6)]GlcNAc
# In short: as §1
# [12] = target: GlcNAc(b1-2)[GlcNAc(b1-6)]Man(a1-6)[GlcNAc(b1-4)][GlcNAc(b1-2)Man(a1-3)]Man(b1-4)GlcNAc(b1-4)GlcNAc
# In short: as §1
# GlcNAc(b1-3)Fuc = target: GlcNAc(b1-3)Fuc
# In short: as §1
# GlcNAc(b1-3)Gal = target: GlcNAc(b1-3)Gal
# In short: as §1
# [13] = target: GlcNAc(b1-3)Gal(b1-3)GalNAc
# In short: as §1
# GlcNAc(b1-3)Gal(b1-4)Glc = target: GlcNAc(b1-3)Gal(b1-4)Glc
# In short: as §1
# [14] = target: GlcNAc(b1-3)Gal(b1-4)GlcNAc
# In short: as §1
# [15] = target: GlcNAc(b1-3)Gal(b1-4)GlcNAc(b1-2)Man(a1-3)[GlcNAc(b1-3)Gal(b1-4)GlcNAc(b1-2)Man(a1-6)]Man(b1-4)GlcNAc(b1-4)GlcNAc
# In short: as §1
# [16] = target: GlcNAc(b1-3)Gal(b1-4)GlcNAc(b1-2)Man(a1-3)[GlcNAc(b1-3)Gal(b1-4)GlcNAc(b1-2)Man(a1-6)]Man(b1-4)GlcNAc(b1-4)[Fuc(a1-6)]GlcNAc
# In short: as §1
# [17] = target: GlcNAc(b1-3)Gal(b1-4)GlcNAc(b1-2)[GlcNAc(b1-3)Gal(b1-4)GlcNAc(b1-6)]Man(a1-6)[GlcNAc(b1-3)Gal(b1-4)GlcNAc(b1-2)Man(a1-3)]Man(b1-4)GlcNAc(b1-4)GlcNAc
# In short: as §1
# [18] = target: GlcNAc(b1-3)Gal(b1-4)GlcNAc(b1-3)Gal(b1-4)GlcNAc
# In short: as §1
# [19] = target: GlcNAc(b1-3)Gal(b1-4)GlcNAc(b1-3)Gal(b1-4)GlcNAc(b1-2)Man(a1-3)[GlcNAc(b1-3)Gal(b1-4)GlcNAc(b1-3)Gal(b1-4)GlcNAc(b1-2)Man(a1-6)]Man(b1-4)GlcNAc(b1-4)GlcNAc
# In short: as §1
# [20] = target: GlcNAc(b1-3)Gal(b1-4)GlcNAc(b1-3)Gal(b1-4)GlcNAc(b1-2)Man(a1-3)[GlcNAc(b1-3)Gal(b1-4)GlcNAc(b1-3)Gal(b1-4)GlcNAc(b1-2)Man(a1-6)]Man(b1-4)GlcNAc(b1-4)[Fuc(a1-6)]GlcNAc
# In short: as §1
# [21] = target: GlcNAc(b1-3)Gal(b1-4)GlcNAc(b1-3)Gal(b1-4)GlcNAc(b1-2)[GlcNAc(b1-3)Gal(b1-4)GlcNAc(b1-3)Gal(b1-4)GlcNAc(b1-6)]Man(a1-6)[GlcNAc(b1-3)Gal(b1-4)GlcNAc(b1-3)Gal(b1-4)GlcNAc(b1-2)Man(a1-3)]Man(b1-4)GlcNAc(b1-4)[Fuc(a1-6)]GlcNAc
# In short: as §1
# [22] = target: GlcNAc(b1-3)Gal(b1-4)GlcNAc(b1-3)Gal(b1-4)GlcNAc(b1-3)Gal(b1-4)GlcNAc(b1-2)Man(a1-3)[GlcNAc(b1-3)Gal(b1-4)GlcNAc(b1-3)Gal(b1-4)GlcNAc(b1-3)Gal(b1-4)GlcNAc(b1-2)Man(a1-6)]Man(b1-4)GlcNAc(b1-4)GlcNAc
# In short: as §1
# [23] = target: GlcNAc(b1-3)Gal(b1-4)GlcNAc(b1-3)Gal(b1-4)GlcNAc(b1-3)Gal(b1-4)GlcNAc(b1-2)Man(a1-3)[GlcNAc(b1-3)Gal(b1-4)GlcNAc(b1-3)Gal(b1-4)GlcNAc(b1-3)Gal(b1-4)GlcNAc(b1-2)Man(a1-6)]Man(b1-4)GlcNAc(b1-4)[Fuc(a1-6)]GlcNAc
# In short: as §1
# [24] = target: GlcNAc(b1-3)Gal(b1-4)GlcNAc(b1-3)Gal(b1-4)GlcNAc(b1-3)Gal(b1-4)GlcNAc(b1-2)[GlcNAc(b1-3)Gal(b1-4)GlcNAc(b1-3)Gal(b1-4)GlcNAc(b1-3)Gal(b1-4)GlcNAc(b1-6)]Man(a1-6)[GlcNAc(b1-3)Gal(b1-4)GlcNAc(b1-3)Gal(b1-4)GlcNAc(b1-3)Gal(b1-4)GlcNAc(b1-2)Man(a1-3)]Man(b1-4)GlcNAc(b1-4)[Fuc(a1-6)]GlcNAc
# In short: as §1
# [25] = target: GlcNAc(b1-3)Gal(b1-4)GlcNAc(b1-3)Gal(b1-4)GlcNAc(b1-3)Gal(b1-4)GlcNAc(b1-3)Gal(b1-4)GlcNAc(b1-2)Man(a1-3)[GlcNAc(b1-3)Gal(b1-4)GlcNAc(b1-3)Gal(b1-4)GlcNAc(b1-3)Gal(b1-4)GlcNAc(b1-3)Gal(b1-4)GlcNAc(b1-2)Man(a1-6)]Man(b1-4)GlcNAc(b1-4)GlcNAc
# In short: as §1
# [26] = target: GlcNAc(b1-3)Gal(b1-4)GlcNAc(b1-3)Gal(b1-4)GlcNAc(b1-3)Gal(b1-4)GlcNAc(b1-3)Gal(b1-4)GlcNAc(b1-2)Man(a1-3)[GlcNAc(b1-3)Gal(b1-4)GlcNAc(b1-3)Gal(b1-4)GlcNAc(b1-3)Gal(b1-4)GlcNAc(b1-3)Gal(b1-4)GlcNAc(b1-2)Man(a1-6)]Man(b1-4)GlcNAc(b1-4)[Fuc(a1-6)]GlcNAc
# In short: as §1
# [27] = target: GlcNAc(b1-3)Gal(b1-4)GlcNAc(b1-3)Gal(b1-4)GlcNAc(b1-3)Gal(b1-4)GlcNAc(b1-3)Gal(b1-4)GlcNAc(b1-2)[GlcNAc(b1-3)Gal(b1-4)GlcNAc(b1-3)Gal(b1-4)GlcNAc(b1-3)Gal(b1-4)GlcNAc(b1-3)Gal(b1-4)GlcNAc(b1-6)]Man(a1-6)[GlcNAc(b1-3)Gal(b1-4)GlcNAc(b1-3)Gal(b1-4)GlcNAc(b1-3)Gal(b1-4)GlcNAc(b1-3)Gal(b1-4)GlcNAc(b1-2)Man(a1-3)]Man(b1-4)GlcNAc(b1-4)[Fuc(a1-6)]GlcNAc
# In short: as §1
binder,measurement,setting,value
BT3172pd (Bacteroides thetaiotaomicron) (protein) MLPLRAEHYYYKQISLKEGLPSNVRCILRDEQGFIWIGTKAGLGKFDGHQLKRYKHQANDPHSLLHNLIYQIAEDKQHNIWILTEKGIARYQQQSNNFTFPTDEEGNYITAYSFCLVPDGILFGGKDRIYKYSYKDSSLRLLQYFNANSFKITALSVWDSKTLLCCSRWTGLYLVDLQTGEHRRPPFDCGPEITSMITDSKNRIWIAPYSGGLRCYSRDGKLSASYTTHNSSLSNDIVLSLAEREEQLWIGTDGGGINILHPETGEISQLEYIPGRENYSLPANSILCLHNDYNNNVWAGSTCNGLISIREVSMKTYTDVVPGNDRGLSNGTVRSLYRQSPDSIWIGTDGGGINLFSPHTEKFTHYSSTWGDKVAFISGFTPGKLLISLFSKGVFVFNPATGEKQPFTIIDKETTTRLCNRGKSVNLYQNTPNTVLFLGDHIYQYHLKEKKFSTITEEEGKDIVGTLVPFDHQENLTYINDIKHIYELDDQTSRLKTVFECYTDTVISSVSHDEQGHFWIGSNFGLIHYDPVLKSRTLVPTNLFTEINMVLCDQKGKVWIGVDNMLFAYFIKEQKFVLFGESNGAIQNEYLPNARLVNEQGDAYIGGVKGMLRIDGQLLLNTSEMPELQLLDITINGESANHEWYNHPAKISVPWNSNISIRIMSREEDIFRQKIYRYQIEGLNNEYTESYNPELVIRSLLPGSYRIMASCTAKDGSWIPDQQVLELTVLPPWYRTHHHHHH,glycan array binding signal (z-score),[1],-0.448
same,glycan array binding signal (z-score),[2],-0.004
same,glycan array binding signal (z-score),[3],-0.432
same,glycan array binding signal (z-score),[4],-0.689
same,glycan array binding signal (z-score),[5],0.427
same,glycan array binding signal (z-score),[6],-0.461
same,glycan array binding signal (z-score),[7],0.382
same,glycan array binding signal (z-score),[8],-0.149
same,glycan array binding signal (z-score),[9],-0.738
same,glycan array binding signal (z-score),[10],-0.563
same,glycan array binding signal (z-score),[11],-0.17
same,glycan array binding signal (z-score),[12],-0.604
same,glycan array binding signal (z-score),GlcNAc(b1-3)Fuc,0.844
same,glycan array binding signal (z-score),GlcNAc(b1-3)Gal,-0.508
same,glycan array binding signal (z-score),[13],0.3
same,glycan array binding signal (z-score),GlcNAc(b1-3)Gal(b1-4)Glc,-0.285
same,glycan array binding signal (z-score),[14],-0.419
same,glycan array binding signal (z-score),[15],-0.327
same,glycan array binding signal (z-score),[16],-0.74
same,glycan array binding signal (z-score),[17],-0.977
same,glycan array binding signal (z-score),[18],-0.505
same,glycan array binding signal (z-score),[19],-0.177
same,glycan array binding signal (z-score),[20],-0.504
same,glycan array binding signal (z-score),[21],-0.268
same,glycan array binding signal (z-score),[22],-0.361
same,glycan array binding signal (z-score),[23],-0.183
same,glycan array binding signal (z-score),[24],-0.376
same,glycan array binding signal (z-score),[25],-0.791
same,glycan array binding signal (z-score),[26],1.08
same,glycan array binding signal (z-score),[27],-0.365

# Source: the supplement of paper PMC8728848
